The record followed here is ChEMBL document CHEMBL4888484, “Replenishing the malaria drug discovery pipeline: Screening and hit evaluation of the MMV Hit Generation Library 1 (HGL1) against asexual blood stage Plasmodium falciparum ,using a nano luciferase reporter read-out” (2022).

The whole screen tested about 150,000 compounds, of which about 540 (0.36%) showed an effect of 50% or more. This is one part of the list.

The assay has as its system Plasmodium falciparum. As to the kind of experiment: Primary screen in NF54 nanoGlo assay, in single point, at 2uM, 72h; a lower Z score goes with more inhibition. In kind it is functional, Erythrocyte. The following applies: timepoint 72 hour.
By % Inhibition is commonly meant the relative decrease from the control value, in per cent. For the compound `O=C(NCC1(Cn2cccn2)CC1)c1ncc[nH]1`, the “% Inhibition” value was -1% and the Z score was determined as 0.1.
The like results for `COC[C@@H]1[C@H](C(=O)N2CCN(c3ccc(OC)cc3)CC2)CCCN1Cc1ccccc1` were, in that order, -15% and 1.82.
As to `CC(=O)N1CCC(N[C@H]2C[C@@H](Cc3cc(CN4CCN(c5ccccc5)CC4)on3)C2(C)C)CC1`, the “% Inhibition” value is reported as -8% and the Z score came out at 1.07.
Taken in the same sequence, the figures for `Cc1nc(-c2ccc[nH]2)n(-c2ccc(F)cc2)n1` were -4% and 0.53.
Taken in the same sequence, the figures for `C[C@@H](Cc1ccc2ccccc2c1)NS(=O)(=O)CC1CCOCC1` were -8% and 0.76.
Taken in the same sequence, the figures for `CN1CC2(CCN(C(=O)c3ccc(Cl)cn3)CC2)CC1=O` were -9% and 1.06.
Consider `O=C1C[C@H](CNCc2ccc(OCC(F)F)cc2)CN1C1CC1`, for which the “% Inhibition” value is recorded as -16% and the Z score is 2.31.
The like results for `c1cc2nnnn2nc1N(CC1CCCCC1)C1CC1` were, in that order, 15% and -1.97.
The like results for `CC(CNC(=O)N1CC[C@H](O)[C@@H]1C)c1ccc(Br)cc1` (stereo partly drawn) were, in that order, -15% and 2.94.
The like results for `CCc1nnc(CN(C)C(=O)CCc2cn[nH]c2)o1` were, in that order, -6% and 1.26.
In the case of `C[C@H](NC(=O)N1CCC(c2cncn2C)CC1)c1ccn(C)n1`, the “% Inhibition” value is -1% and the Z score worked out at 0.19.
The like results for `CCn1cc(NC(=O)C2CCN(c3nc(C)nc(C)c3C)CC2)cn1` were, in that order, -12% and 1.06.
Taken in the same sequence, the figures for `Cc1ccc(C(=O)N(CCN(C)C)Cc2cc3ccc(F)cc3nc2-c2ccccc2C)cc1` were 22% and -2.82.
In the case of `CC(NC(=O)c1ccc(-n2cnnn2)cc1)C1CCCO1` (stereo not drawn), the “% Inhibition” value is listed as -3% and the Z score is 0.58.
The like results for `Cc1noc(C)c1C(=O)NS(=O)(=O)Cc1ccc(Cl)c(F)c1` were, in that order, -7% and 0.84.
Taken in the same sequence, the figures for `COC(=O)c1ccc(CN(C)C(=O)c2cc(C)sn2)nc1` were -4% and 0.45.
Regarding `C=CCNC(=O)Nc1ccccc1N1CCCN(Cc2ccccc2Cl)C1=O`, the “% Inhibition” value is -8% and the Z score was determined as 0.96.
For the compound `Cc1noc2ccc(CN3CCc4[nH]nc(Cc5cccs5)c4C3)cc12`, the “% Inhibition” value worked out at 4% and the Z score is -0.54.
The like results for `Cc1nc(-c2cccc(F)c2)nc(N2CCN(C(=O)c3ccccc3)CC2)c1C` were, in that order, -17% and 1.63.
Taken in the same sequence, the figures for `Cc1cc(C(=O)NCC2(c3ccccn3)CC2)n(C)n1` were 3% and -0.3.
The like results for `C1=C(Cn2nnnc2N2CCC3(CC2)OCCCO3)CCCC1` were, in that order, -1% and 0.2.
With `NS(=O)(=O)c1ccc(Cl)cc1Cl`, the “% Inhibition” value is on record as -5% and the Z score is 0.64.
As to `CC1CC(C)CN(C(=O)CCC(=O)NCCc2ccc(Cl)cc2)C1` (stereo not drawn), the “% Inhibition” value is 30% and the Z score was -3.87.
Regarding `O=C(c1cc(-c2ccc3c(c2)CCO3)no1)N1CCN(C2CCC2)CC1`, the “% Inhibition” value is -5% and the Z score is reported as 0.89.
Taken in the same sequence, the figures for `Cc1noc(/C=C/c2ccccc2OCCN2CCCCC2)n1` were -1% and 0.14.
The like results for `CN(C(=O)CCc1ccccc1)C1CCN(c2ccccn2)CC1` were, in that order, -4% and 0.63.
Consider `Cc1ccoc1C(=O)N[C@H](c1ccc(Cl)cc1)c1ncon1`, for which the “% Inhibition” value was -6% and the Z score was found to be 0.68.
Regarding `CCCCS(=O)(=O)N1CC(S(C)(=O)=O)C1`, the “% Inhibition” value is given as 4% and the Z score is -0.81.
As to `O=C(C[C@H](c1nc2ccccc2c(=O)[nH]1)c1nc2ccccc2s1)NCc1ccc2c(c1)OCO2`, the “% Inhibition” value was -5% and the Z score worked out at 0.86.
As for `CC(C)(C(=O)Nc1cc2c([nH]c1=O)CCCC2)[C@H](N)c1ccccc1`, the “% Inhibition” value is recorded as -14% and the Z score was 1.51.
Taken in the same sequence, the figures for `Cc1ccc(S(=O)(=O)N2CCN(c3nc(Cc4ccccc4)nc4c3c(C)nn4-c3ccccc3)CC2)cc1` were -4% and 0.59.
Taken in the same sequence, the figures for `CCn1ncc(CN2CCC[C@H](OCc3noc(C)n3)C2)c1C` were 5% and -0.75.
Taken in the same sequence, the figures for `CC(C)(C)c1ccc(CN2C(=O)[C@@H]3CCCN3C2=O)cc1` were -14% and 1.2.
In the case of `Cn1cc(-c2nc([C@@H]3CCCCCN3C(=O)c3cc(C4CC4)[nH]n3)no2)cn1`, the “% Inhibition” value is recorded as -13% and the Z score is on record as 1.47.
Taken in the same sequence, the figures for `CC1CCCCC1OCCOC(=O)c1cc(-n2ccnc2)ccn1` (stereo not drawn) were 8% and -0.95.
The like results for `Cc1[nH]nc(CCC(=O)N2CCC(C)(C#N)CC2)c1C` were, in that order, -16% and 2.35.
As for `Cc1cnc(N2CCC(N(C)C)CC2)nc1N(C)C`, the “% Inhibition” value is listed as 0% and the Z score stood at 0.05.
For `CC(C)N1C[C@@H](c2nc(-c3ccccc3)c(-c3ccccc3)[nH]2)CC1=O`, the “% Inhibition” value came out at 3% and the Z score is reported as -0.33.
Taken in the same sequence, the figures for `FC(F)(F)c1ccc(CN2CC[C@H](c3nc4ccccc4s3)C2)cc1` were -5% and 0.7.
Taken in the same sequence, the figures for `COc1ccc(-c2noc(N3CCN(c4cc(Cl)ccc4C)CC3)n2)cc1` were -4% and 0.53.
The like results for `COc1ccc(F)cc1C(NC(=O)c1csc(C)n1)[C@H]1C[C@@H](O)C1` (stereo partly drawn) were, in that order, 6% and -0.95.
Take `O=C(NCc1ccc(CNC(=O)C(Cl)(Cl)Cl)cc1)C(Cl)(Cl)Cl`: the “% Inhibition” value is reported as -8% and the Z score was found to be 1.05.
For the compound `COc1cc([C@H]2CC(O)=Nc3nc(N)sc32)ccc1OCCc1ccccc1`, the “% Inhibition” value is on record as -7% and the Z score is 0.99.
Taken in the same sequence, the figures for `CC(C)c1ccccc1NC(=O)CCN1CCC2(CC1)C(=O)N(C)C(=O)N2C` were 4% and -0.6.
Taken in the same sequence, the figures for `c1ccc(CNc2nccc(N3CCn4cnnc4C3)n2)cc1` were 22% and -2.56.
The like results for `O=C(CCNC(=O)N1CCOCC1)Nc1ccccc1` were, in that order, -2% and 0.32.
As to `CCc1cccc(NC(=O)CN2N=C(c3ccccc3)c3ccccc3S2(=O)=O)c1`, the “% Inhibition” value is on record as -26% and the Z score is 2.43.
In the case of `CCCC(C#N)(CCC)NC(=O)c1ccncc1F`, the “% Inhibition” value is on record as -7% and the Z score came to 1.18.
Taken in the same sequence, the figures for `COc1cccc(-c2ccc(N3CCC(NC[C@H]4CCCO4)CC3)cc2)c1` were -12% and 1.66.
The like results for `COc1ccc(S(=O)(=O)C2CCN(C(=O)c3cccc(C(F)(F)F)c3)CC2)cc1` were, in that order, -23% and 2.89.
Taken in the same sequence, the figures for `CC(C)(CNC(=O)[C@@H]1NCCOc2ccccc21)C(N)=O` were -5% and 0.86.
For `COc1cccc2c1OC[C@@H](C(=O)NC1CCN(Cc3ccco3)CC1)C2`, the “% Inhibition” value is recorded as -3% and the Z score amounted to 0.44.
Turning to `O=C(Nc1cccnc1)c1ccc(CNC(=O)c2ccccc2F)cc1`, the “% Inhibition” value is on record as -8% and the Z score is given as 1.38.
Taken in the same sequence, the figures for `O=S(=O)(Nc1cccnc1)N1CCCC1` were 0% and 0.02.
